Data published in the supplement of paper PMC12632987.
Whole data set: some 4,500 sequences, median “median log2 fold change of GCK-ALFA target abundance (FLAG IP / Myc IP barcode read proportion)” near 0.078, cut for the lowest 2% near -0.6. The list shows a part of the results.

B1: GBRAP_166_4991 (protein)
chain: SDEELLEETKKYIDEAFERAKTLSPEERDEEIAEANLKVNDAIEELKDLEKAKELAVYYVEKLVELLGSAEAARRRIVWPLDVPDEVIDAAEERLRELAE
B2: GBRAP_160_4113 (protein)
chain: KEKLVEAAEENAEDVKETIKIIEDLSPEEAGNLAIVTLGQVLLDASEFGEEFEEIEKLAEEAIEEIKKTAEEDPEKLKEVSKEQLEKLRKALEEKAKELK
B3: GBRAP_9_7108 (protein)
chain: KEEFAKKVKEIIKDAAEEIKKVVPEELKPLVDELTEKILKEIEKLAKDKNTTKEEIAEAAKKGLKELAKELSKKLSPEIAAAVEAIVLTAIEEIDELAEE
B4: GBRAP_39_5717 (protein)
chain: EEEEEAENIFSYYEAVGAAEMYKRGISLEELFERTLAEARELAADDPELLAALEELEELALKAGDEAKLAATGIMVRLVEGAPREEVLADLKKLIAYLKS
B5: GBRAP_139_3758 (protein)
chain: MKEEEIKKKAEEFFEEMKKDFEKAVEKTAEYLASLSDEERLKFTEALAKIAAKEGEEFAEKFKEALVEKIKELTKDEDDALAVEGTMETAIAREEMKKEA
B6: GBRAP_153_3941 (protein)
chain: EEERKKRLEEAKELADKIEKEGLPEELLLEFARLVYSLDEEEKLEVAKYINTLSPETVYAIFLTLATKVPFTTEELLAMITELNEENEAAALEALVEAQK
B7: GBRAP_160_4607 (protein)
chain: SEKLEELKKFVKEEFEEAKELIVGQTTEERATIVDVTFGQIIIEAIELEAVSDETIEKFAEIGDETVATILSNPDLTDEEIKALIDEAEEKILKLIEEEE
B8: GBRAP_80_6765 (protein)
chain: DRAALEAALAELEKLLPDLAPAVRAMVEKALALGVPAALLARFVKAAVELARKDKEKAREIITEMIEEVNELIAEGDKEGVIATIADYEGEMLLAVEETE

What follows are binders tested against GABARAP, O95166 (assay: median log2 fold change of GCK-ALFA target abundance (FLAG IP / Myc IP barcode read proportion) (log2 ratio); each designed protein is fused to an ALFA-tag nanobody in HEK293 cells to bring the named protein to FLAG-tagged glucokinase (GCK); Myc marks an untargeted standard; higher = target protein stabilised (more abundant)). Conditions: target protein: 3xFLAG-MCP-GCK-ALFA reporter; HEK293 landing pad (RPLP).
Chain of GABARAP, O95166 (O95166 whole entry, the tested form may be a part): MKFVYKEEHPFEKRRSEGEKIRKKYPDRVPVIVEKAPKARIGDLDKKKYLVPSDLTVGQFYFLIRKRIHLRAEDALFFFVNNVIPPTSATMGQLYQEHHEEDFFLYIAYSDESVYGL
In short: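 HEK293 landing-pad cells received a recombined binder library fused to the ALFA nanobody and were induced with 2 μg mL^−1 doxycycline, then transfected with a plasmid encoding a FLAG-tagged target and a Myc-tagged standard. Lysates were collected after 48 h for anti-FLAG and anti-Myc immunoprecipitation, and the circular RNA barcodes were reverse transcribed, amplified and sequenced. Target abundance for each binder is the median log2 ratio of FLAG to Myc barcode read proportions. Barcodes had to reach a proportion of at least 10^−7 in both replicates, each binder needed at least 3 barcodes per replicate, a pseudocount of 10^−6 was applied, and the two replicates were pooled.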

Point of comparison: B2, “median log2 fold change” value 0.161. Against it:
- B1 — within 0.2 log units, 0.129
- B3 — higher, 0.464
- B4 — within 0.2 log units, 0.239
- B5 — higher, 0.361
- B6 — within 0.2 log units, 0.148
- B7 — lower, -0.243
- B8 — within 0.2 log units, 0.0581
